Measured values from ChEMBL document CHEMBL4888484, “Replenishing the malaria drug discovery pipeline: Screening and hit evaluation of the MMV Hit Generation Library 1 (HGL1) against asexual blood stage Plasmodium falciparum ,using a nano luciferase reporter read-out” (2022).
Hit rate of the full screen: of about 150,000 compounds, about 540 (0.36%) showed an effect of 50% or more. This is one part of the list.

tested on: Plasmodium falciparum; assay: Primary screen in NF54 nanoGlo assay, in single point, at 2uM, 72h; a lower Z score goes with more inhibition; type: functional, Erythrocyte; details: timepoint 72 hour

Compound | % Inhibition [%] | Z score
O=C1C[C@H](n2ccnc2-c2cnc(-c3ccco3)nc2)CN1Cc1ccccc1 | -6 | 1.1
CCCCCNC(=O)N(C)C1CCC(CO)CC1 (stereo not given) | -14 | 1.4
O=C(NCCc1ccc(C(F)(F)F)cn1)O[C@H]1CCOC1 | -5 | 0.93
CCCc1cc(C(=O)N2C[C@H](C(=O)O)[C@@H](c3ccccc3C)C2)[nH]n1 | -14 | 1.74
C[C@@H]1CN(C(=O)Cc2ccccn2)CC[C@@]1(O)C1CCOCC1 | -4 | 0.86
c1cc(CN(Cc2ccoc2)C2CCCCC2)on1 | -1 | 0.13
CC[C@H](NS(C)(=O)=O)c1ccc(C)cc1 | -2 | 0.18
CCc1nnsc1C(=O)NCc1nc2ccccc2s1 | -7 | 1.19
COc1ccccc1-c1ccc(C(=O)N(C)CCO)c(N2CCN(c3ccccc3F)CC2)n1 | 22 | -2.76
CC(C(=O)NC1(C#N)CCCCC1)N1CCCC(c2ccn[nH]2)C1 (stereo not given) | 1 | -0.1
Nc1cc(CN2CCCC2CC(O)c2ccc(F)cc2)ccn1 (stereo not given) | -13 | 1.76
C#C[C@](C)(CC)NCc1cn(C(C)C)nc1C | -13 | 1.71
Cc1cn(CCNc2nc(C3CCCC3)nc3c2CNC3)nn1 | -2 | 0.38
Cc1ocnc1CNC(=O)NC[C@H](Cc1ccccc1)C(C)C | -11 | 0.9
Cc1ccc(S(=O)(=O)N2CCC3(CC2)N[C@@H](Cc2ccccc2)C(=O)N3Cc2ccc(F)cc2)cc1 | -9 | 1.38
O=S(=O)(c1ccc(-c2noc(-c3ccccc3Br)n2)cc1)N1CCCCC1 | -1 | 0.18
Cc1cccc(CNC(=O)[C@@H]2CCN(c3ccc4ccccc4c3)C2=O)c1 | -2 | 0.22
O=C(O)[C@@H]1CN(C(=O)C2(c3ccccc3)CCCC2)CCO1 | 7 | -0.89
CCOc1ccccc1NC(=O)N1CCN(Cc2ccc(C)cc2)C(=O)[C@@H]1C | -9 | 0.97
CC(CN1CCC(N2CCOCC2)C1)c1cccc(Cl)c1 (stereo not given) | 5 | -0.64
Cc1cnc(CNC(=O)CC(C)(C)CC(=O)c2ccccc2)s1 | 2 | -0.3
CCc1ccccc1N(C)C(=O)Cn1ccc2c(=O)n(C)c(=O)n(C)c21 | -29 | 2.87
Cc1cc(C)n(C[C@H](C)Nc2ccnc(C(=O)NC(C)C)c2)n1 | -4 | 0.53
COc1cc(F)c(CN2CCN3CCN(C)C[C@H]3C2)c(F)c1 | 0 | -0.03
Cc1ncsc1CCc1nc(Cc2cccnc2)nn1CCO | -7 | 0.87
Cc1cc(C(=O)N2CCC[C@H](c3nccn3C)C2)c2c(C)noc2n1 | -20 | 2.27
O=C(NCc1nccn1CCCc1ccccc1)N1CCC[C@H](O)C1 | -4 | 0.51
C#CCN(CC(=O)O)Cc1ccccc1C1CC1 | -4 | 0.75

Compound | % Inhibition [%] | Z score
CCCn1cnc2cc(-c3noc(-c4ccc(C)cc4)n3)ccc21 | -18 | 2.32
CCN(CCOc1cccc(C)c1)C(=O)Cc1n[nH]c(NC(C)=O)n1 | -13 | 2.07
Cc1nn(C)cc1C(C)NC(=O)N1CCCC(CN2CCOCC2)C1 (stereo not given) | -5 | 0.46
Cc1cnn(-c2ccccc2)c1C(=O)NC1CCN(Cc2ccccc2)CC1 | -10 | 1.45
O=C(c1cnn2ccccc12)N1CCC(c2c[nH]c3ccccc23)CC1 | 34 | -3.89
CCc1ccccc1-n1c(=O)[nH]c2c(c1=O)C(CC)(CC)Cc1ccccc1-2 | 2 | -0.27
CO[C@H]1C[C@H](C(=O)Nc2cc(Br)ccc2O)N(C(=O)OC(C)(C)C)C1 | 8 | -1.09
N#CCn1cc(S(=O)(=O)N2CCOCC2)ccc1=O | -7 | 1.21
O=C(Cc1ccc(NS(=O)(=O)c2ccc3c(c2)CCCC3)cc1)N1CCOCC1 | -4 | 0.63
Cc1noc(C)c1C(=O)NC[C@](C)(O)c1cc2ccccc2o1 | 1 | -0.19
C[C@H](Nc1ccc2nc(C3CC3)oc2c1)C1CCS(=O)(=O)CC1 | 2 | -0.31
COCn1ccc(C(=O)Nc2ccnc(C)c2Cl)n1 | -12 | 1.42
O=C(COC(=O)c1c(F)cccc1Cl)Nc1ccc2c(c1)CCC2 | -6 | 1.09
FC(F)(F)C1CCC(c2nc(C3CCCCO3)no2)C1 (stereo not given) | -7 | 0.75
CCOCCCNC(=O)c1cn2ccnc(-c3ccc(F)cc3)c2n1 | -2 | 0.34
COc1ncc(Cl)c(N(C)CC2(O)CCCC2)n1 | -19 | 2.45
Cc1nn(C)c(C)c1CCC(=O)N1CC[C@H](N2CCOCC2)[C@H](CCCO)C1 | -8 | 1.29
CN(CCc1ccc2c(c1)CCO2)C1CN(c2ccc3nncn3n2)C1 | 3 | -0.52
COC[C@H]1CCN(C(=O)c2cncc(Cl)c2)C1 | -12 | 1.57
CCc1nc(NS(=O)(=O)c2ccc3ccccc3c2)no1 | -11 | 1.13
COc1ccc(S(=O)(=O)C2CCN(C(=O)Cn3ncccc3=O)CC2)cc1 | -14 | 1.8
CN(C(=O)NCc1ncnn1-c1ccccc1)C1CCC(C)(C)CC1 | -8 | 1.74
COc1ccc(-c2cnc(C)n2C)cn1 | 8 | -1.36
O=C(CC[C@@H]1CCCN2CCCC[C@H]12)NCCn1cc(Cl)cn1 | -27 | 2.9
CO[C@H]1COC[C@@H]1NCc1ccccc1-c1ccco1 | -8 | 1.12
O=C(Nc1ccc(Cl)cn1)N1CC[C@H](O)C1 | -8 | 1.12
Cc1ccnc(NC(=O)C2CCC(F)(F)CC2)n1 | -8 | 1.54
